Experimental data: PubChem BioAssay AID485281 (National Center for Advancing Translational Sciences (NCATS), 2010)
About 260 (0.074%) of roughly 350,000 compounds were called active. This list was built around the results that the source calls inconclusive (neither active nor inactive); the mix of calls is not that of the screen. Calls follow the shape of the dose curve; as a rule, active = well fitted inhibition curve with a large enough effect; inconclusive = small, poorly fitted or top-dose-only effect; inactive = no such curve, though single readings can be large or run the other way. Potencies of inconclusive entries are doubtful fits and often do not repeat.

The compounds below were run against Ferritin light chain (Equus caballus) (UniProt P02791) (assay: qHTS Assay for Identification of Novel General Anesthetics). Conditions: apoferritin/1-aminoanthracene competitive binding, fluorescence; activity change, negative = displacement: at 77.5 µM (top of the series).
Sequence of UniProt P02791 (P02791 whole entry, looked up): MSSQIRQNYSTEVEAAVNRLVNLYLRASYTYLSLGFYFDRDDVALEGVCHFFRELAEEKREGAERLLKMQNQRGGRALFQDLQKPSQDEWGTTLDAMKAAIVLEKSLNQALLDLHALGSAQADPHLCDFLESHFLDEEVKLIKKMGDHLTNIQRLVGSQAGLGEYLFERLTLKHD
Method in brief: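 Probe: 1-aminoanthracene (50% saturated, PBS). Protein: horse-spleen apoferritin, 10 uM. Incubation: 10 min, room temperature. Detection: 380 nm excitation, 535 nm emission. Analysis: normalized response, four-parameter Hill.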
% is scaled to controls: 0 for no effect and ±100 for the full control effect; potency is read from the fitted curve at half-maximal effect; tags tell the direction and shape of the fitted curve.
Also: nearly all actives have a fitted effect of over 20% in size.

SMILES | activity change, negative = displacement | Potency
CCS(=O)(=O)N1CCN(S(=O)(=O)c2ccccc2)CC1 | inactive: -7.65% | 
Cc1ccccc1NC(=O)c1onc2c1CCCC2 |  | inconclusive: 35.5 µM [inhibitor, partial curve]
CCn1c2ccccc2c2cc(NC(=O)c3coc(=O)c(Br)c3)ccc21 | inactive: -2.54% | 
O=[N+]([O-])c1ccc(Nc2ccccc2F)nc1 |  | inconclusive: 28.2 µM [inhibitor, partial curve]
O=c1[nH]c2ccc(NS(=O)(=O)c3ccc(F)cc3)cc2s1 |  | inconclusive: 39.8 µM [inhibitor, single point]
CCCC(=O)Nc1ccc(NC(=S)NC(=O)c2cccs2)cc1 |  | inconclusive: 28.2 µM [inhibitor, single point]
Nc1cc(=O)[nH]c(SCC(=O)N2N=C(c3ccc(Cl)cc3)CC2c2ccco2)n1 (centres undefined) |  | inconclusive: 20 µM [inhibitor, partial curve]
O=C1NC(c2ccccc2)(C(F)(F)F)C(=O)N1Cc1cccnc1 (centres undefined) |  | inconclusive: 15.8 µM [inhibitor, partial curve]
O=C(NCc1cccs1)c1csc2c1CCCCC2 |  | inconclusive: 7.94 µM [inhibitor, partial curve]
CCn1cc(C(=O)NCc2ccco2)c(=O)c2cc(S(=O)(=O)N3CCC(C)CC3)ccc21 |  | inconclusive: 8.91 µM [inhibitor, full curve]
Cc1ccc(S(=O)(=O)N2CCC(c3nnc(-c4cccc(C)c4)o3)CC2)cc1 | inactive: -12.6% | 
CCC(C(=O)NCc1cccc(C)c1)n1nc(C)c2c(C)n(-c3ccccc3)nc2c1=O (centres undefined) |  | inconclusive: 28.2 µM [inhibitor, single point]
O=C1c2ccccc2S(=O)(=O)N1CC(O)COc1ccc(Br)cc1 (centres undefined) |  | inconclusive: 28.2 µM [inhibitor, partial curve]
CCOc1ccc(CCNC(=O)c2ccc(C)c(-n3cnc4cccnc43)c2)cc1 | inactive: 2.61% | 
Cc1cccc(NCc2ccc(O)c3ncccc23)c1C |  | inconclusive: 35.5 µM [inhibitor, single point]
CCOC(=O)c1c(-c2ccc(OC)cc2)csc1/N=C/C1C(=O)CCCC1=O |  | inconclusive: 25.1 µM [inhibitor, partial curve]
Cc1cc(C)cc(NC(=O)CN2CCN(CCN=CC3=C(O)CC(c4ccc(Cl)cc4)CC3=O)CC2)c1 (centres undefined) |  | inconclusive: 12.6 µM [inhibitor, partial curve]
COc1cccc(CNC(=O)c2ccc3c(Cl)c4c(nc3c2)CCCC4)c1 |  | inconclusive: 28.2 µM [inhibitor, single point]
CN(C)CCCN(Cc1ccccc1)C(=S)Nc1ccc(SC(F)F)cc1 |  | inconclusive: 28.2 µM [inhibitor, partial curve]
O=C(CCc1ccc(O)c(O)c1)N/N=C/c1ccc2c(c1)OCO2 | inactive: -6.51% | 
Cc1cnc(C(=O)OCC(=O)NC2CCCCCC2)cn1 |  | inconclusive: 20 µM [inhibitor, partial curve]
O=C(Cc1cccs1)Nc1ccc(S(=O)(=O)N2CCCC2)cc1 |  | inconclusive: 50.1 µM [inhibitor, single point]
C/C(CCc1ccco1)=N/NC(=O)CCC(=O)Nc1ccc(Br)cc1 |  | inconclusive: 22.4 µM [inhibitor, partial curve]

SMILES | activity change, negative = displacement | Potency
O=c1c2c(C(F)(F)F)cc(C(F)(F)F)nc2[nH]n1-c1ccccc1 | inactive: -12.6% | 
Cc1cc(=O)oc2cc(OCC(O)CN3CCN(c4ccccc4)CC3)ccc12 (centres undefined) |  | inconclusive: 20 µM [inhibitor, partial curve]
Cc1cccc(CNc2cc(-c3cccc(NS(C)(=O)=O)c3)ncn2)c1 | inactive: -15.1% | 
CCOC(=O)C(C)/C(C)=N/NC(=O)CCC(=O)Nc1cc(C)ccc1C (centres undefined) |  | inconclusive: 14.1 µM [inhibitor, partial curve]
COc1ccc(NC(=O)C(=O)c2cc(C)n(-c3ccc(C)cc3)c2C)cc1Cl | inactive: -15.4% | 
Brc1[nH]nc2ccccc12 |  | inconclusive: 39.8 µM [inhibitor, single point]
CC(=O)Nc1nnc(SCc2cccc(F)c2)s1 |  | inconclusive: 11.2 µM [inhibitor, partial curve]
C/C(=N\O)c1ccc2c3c([nH]c2c1)CCCC3 | inactive: 6.85% | 
CC(C)c1ccc(NC(=O)c2cc(S(=O)(=O)NC3CCCCC3)ccc2F)cc1 | inactive: -13.7% | 
CN(C)c1ccc(CNc2ncnc3sccc23)cc1 | inactive: 9.28% | 
O=C(COC(=O)c1cccs1)NCc1ccc2c(c1)OCO2 |  | inconclusive: 31.6 µM [inhibitor, partial curve]
COc1ccc(C(=O)CSc2nnc(-c3ccco3)c(-c3ccco3)n2)cc1 |  | inconclusive: 15.8 µM [inhibitor, partial curve]
Cc1ccc(NC(=O)NC(=O)CN2C(=O)NC3(CCCCCCC3)C2=O)c(C)c1 |  | inconclusive: 15.8 µM [inhibitor, partial curve]
C=C/C(C)=C/CC1C(=C)CCC2C(C)(C(=O)O)CCCC12C (centres undefined) | inactive: -0.882% | 
COc1ccc(CNC(=O)C2CCN(c3nnc(C)c4c(C)n(-c5ccc(C)cc5)nc34)CC2)cc1 |  | inconclusive: 5.62 µM [inhibitor, full curve, poor fit]
COc1ccc(N(CC(=O)Nc2cc(Cl)ccc2OC)S(=O)(=O)c2c(C)[nH]c(=O)[nH]c2=O)cc1 |  | inconclusive: 14.1 µM [inhibitor, partial curve]
CO/N=C/c1ccc(Sc2ccccc2N)c([N+](=O)[O-])c1 |  | inconclusive: 31.6 µM [inhibitor, partial curve]
COc1cccc(CNC(=O)Nc2ccc3c(c2)N(C)C(=O)c2ccccc2S3)c1 |  | inconclusive: 28.2 µM [inhibitor, partial curve]
CCCCC1OC23CCCCC2C(C#N)(C#N)C1(C#N)C(=N)O3 (centres undefined) | inactive: 151% | 
Cc1cccc(C)c1OCC(=O)N/N=C/c1cc2c(cc1[N+](=O)[O-])OCO2 |  | inconclusive: 11.2 µM [inhibitor, partial curve]
Cc1ccc(C(=O)c2cc([N+](=O)[O-])ccc2N2CCOCC2)c(C)c1 |  | inconclusive: 25.1 µM [inhibitor, partial curve]
COc1ccc(/C=C/C(=O)N(C)C2CCCCC2)cc1Br |  | inconclusive: 25.1 µM [inhibitor, partial curve]
O=C(COc1cccc2ccccc12)NNC(=O)[C@@H]1CCCC[C@@H]1C(=O)O |  | inconclusive: 25.1 µM [inhibitor, partial curve]

SMILES | activity change, negative = displacement | Potency
CCCOC(=O)c1cccc(Nc2nc(C(=O)OCC)nc3ccccc23)c1 |  | inconclusive: 25.1 µM [inhibitor, single point]
CCCCCCOc1cccc(N)c1 |  | inconclusive: 22.4 µM [inhibitor, partial curve]
Cc1ccc(NCc2ccncc2)c(Br)c1 |  | inconclusive: 22.4 µM [inhibitor, partial curve]
O=C(C1CCCN(Cc2ccc(Cl)cc2)C1)N1CCCCC1 (centres undefined) | inactive: -7.74% | 
Cc1ccc(C2=NN(CCC(=O)NCCC(C)C)C(=O)CC2)cc1 |  | inconclusive: 44.7 µM [inhibitor, single point]
Cc1ccc(C)c(Cn2nnc3c(=O)[nH]c(C4CCCN(C(=O)C5CCCCC5)C4)nc32)c1 (centres undefined) |  | inconclusive: 12.6 µM [inhibitor, partial curve]
COCC(=O)Nc1nnc(-c2ccc(C(C)(C)C)cc2)s1 |  | inconclusive: 39.8 µM [inhibitor, partial curve]
Cc1ccnc(NC(=O)c2ccc(COc3ccc(Cl)cc3)o2)c1 |  | inconclusive: 11.2 µM [inhibitor, full curve, poor fit]
CCCCc1ccc(NC(=O)Nc2cc(C)nn2C)cc1 | inactive: -20.3% | 
Fc1ccc(N/N=C(/c2ccccc2)c2ccccn2)cc1 |  | inconclusive: 28.2 µM [inhibitor, single point]
CC(C)CN(CC(C)C)c1nnc(NC(=O)Nc2cccc(C(F)(F)F)c2)s1 |  | inconclusive: 25.1 µM [inhibitor, partial curve]
Cc1ccc2nc(Cl)c3cc(C(=O)N4CCCC(C)C4)sc3c2c1 (centres undefined) |  | inconclusive: 12.6 µM [inhibitor, partial curve]
CC(C)(C)OC(=O)N1CCC(c2c(C(=O)NCC3CCN(C4CCCC4)C3)cnn2-c2ccc(F)cc2)CC1 (centres undefined) |  | inconclusive: 35.5 µM [inhibitor, single point]
Nc1nc(Nc2cccc(F)c2)nc(NCc2ccco2)c1[N+](=O)[O-] | inactive: -11.6% | 
COc1ccc(C(C)=O)cc1CSc1nc(NCc2ccc(Cl)cc2)c2ccccc2n1 |  | inconclusive: 0.355 µM [inhibitor, full curve]
COCCN(C)Cc1cn(-c2ccc(F)cc2F)nc1-c1ccccc1C |  | inconclusive: 25.1 µM [inhibitor, partial curve]
O=C(Nc1cc(Cl)ccc1Cl)C1CCCO1 (centres undefined) |  | inconclusive: 31.6 µM [inhibitor, single point]
Cc1ccc(NC(=O)COC(=O)CN2C(=O)C3CCCCC3C2=O)cc1S(=O)(=O)N1CCOCC1 (centres undefined) |  | inconclusive: 20 µM [inhibitor, partial curve]
Cc1ccc(NCc2ccc([N+](=O)[O-])s2)cc1 |  | active: 15.8 µM
CN(C)c1ccc(N=Cc2nc(-c3ccccc3)oc2OC(=O)c2cccc(Br)c2)cc1 | inactive: 6.97% | 
O=C(O)/C=C\C(=O)Nc1ccc(OCc2ccccc2)cc1 |  | inconclusive: 28.2 µM [inhibitor, partial curve]
CCCn1c(CNc2ccccc2O)nc2ccccc21 | inactive: -2.67% | 
CCCCc1ccc(NC(=O)CN2NS(=O)(=O)c3ccccc3C2=O)cc1 |  | inconclusive: 31.6 µM [inhibitor, partial curve]
